Drawing on a collection of fitness landscapes (doi:10.1038/s41467-024-54723-y), this text covers TetR repression strength for 102 sequences.

Over roughly 18,000 sequences, “TetR repression strength (sort-seq, GFP reporter)” has its median near 0.23; the highest 2% begin near 0.68. The list shows a part of the results.

Sequence of UniProt P04483 (P04483 whole entry): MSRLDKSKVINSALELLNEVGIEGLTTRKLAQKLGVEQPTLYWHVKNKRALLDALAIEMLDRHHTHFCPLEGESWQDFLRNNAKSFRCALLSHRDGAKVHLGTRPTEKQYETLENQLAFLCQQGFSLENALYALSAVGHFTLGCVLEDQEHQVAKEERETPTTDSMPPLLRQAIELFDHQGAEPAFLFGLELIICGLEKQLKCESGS

The target in this experiment is TetR (class B, Tn10) (UniProt P04483). The experiment is described as follows: TetR repression strength (sort-seq, GFP reporter) (relative to tetO2 = 1); higher = stronger repression. As to conditions: E. coli. The procedure, abridged:
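Three independent transformations of E. coli SIG10-MAX were made with a low-copy plasmid library randomizing eight operator positions between a constitutive promoter and sfGFP, with constitutive TetR. Following 5 h at 37 °C in LB plus 50 µg/mL chloramphenicol, 10^6 cells went through FACS into 13 fluorescence bins, and each bin was sequenced by Illumina. Repression strength was defined as the top bin index plus one minus the read-weighted mean bin, divided by the unaltered operator's value. Averages included only members reaching ≥30 reads in all replicates with a CV ≤0.5.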
For the sequence TCCCGCAGAGTCTAAGAGA, the TetR repression strength came out at 0.265.
With TCCCCGGGAGTCTTGGAGA the figure was 0.188; with TCCCGTGTAGTGTGCGAGA, 0.128; with TCCCAGCGAGTACTGGAGA, 0.382.
With TCCCGTCAAGTACGCGAGA the figure was 0.196; with TCCCAGATAGTGAGAGAGA, 0.238; with TCCCTACTAGTAACAGAGA, 0.303.
With TCCCTAGAAGTTCTAGAGA the figure was 0.518; with TCCCTCGCAGTTGGGGAGA, 0.228.
In turn, TCCCGCAAAGTTCTGGAGA returned a TetR repression strength of 0.174.
With TCCCAACGAGTCAACGAGA the figure was 0.366; with TCCCGAACAGTAGTCGAGA, 0.121.
With TCCCCTTGAGTGCCCGAGA the figure was 0.569; with TCCCGTATAGTCGGGGAGA, 0.216; with TCCCCGTAAGTTTTAGAGA, 0.346.
With TCCCCAAGAGTGTCAGAGA the figure was 0.37; with TCCCGGTAAGTTCGTGAGA, 0.214.
Take TCCCGTGTAGTAACTGAGA: the TetR repression strength is 0.0296.
With TCCCATCTAGTTTGCGAGA the figure was 0.297.
With TCCCGGTGAGTGGGCGAGA the figure was 0.15; with TCCCATTGAGTCAAGGAGA, 0.592.
With TCCCATCGAGTATGCGAGA the figure was 0.264; with TCCCGCTTAGTCCGAGAGA, 0.195.
On to TCCCTGACAGTCAGCGAGA, for which the TetR repression strength amounted to 0.136.
With TCCCGTGGAGTCGCCGAGA the figure was 0.14; with TCCCGGGCAGTAGTGGAGA, 0.419; with TCCCGCGTAGTGTCAGAGA, 0.233.
With TCCCTAGAAGTGACGGAGA the figure was 0.153.
With TCCCGCGAAGTGTATGAGA the figure was 0.222; with TCCCTTTGAGTTTTAGAGA, 0.2; with TCCCGGCCAGTAGGTGAGA, 0.229.
Sequence TCCCCCGCAGTGCTCGAGA came in with a TetR repression strength of 0.331.
The sequence TCCCGCCGAGTCATAGAGA yielded a TetR repression strength of 0.275.
With TCCCCTTGAGTAATAGAGA the figure was 0.253.
With TCCCCGTTAGTGTGCGAGA the figure was 0.0902; with TCCCGAACAGTTGGCGAGA, 0.27; with TCCCAATAAGTGCTAGAGA, 0.629.
With TCCCCGTCAGTCAGTGAGA the figure was 0.421.
TCCCAGTGAGTAAAAGAGA: the TetR repression strength is 0.222.
With TCCCTGTTAGTGTAAGAGA the figure was 0.0382.
With TCCCTAGCAGTAGCTGAGA the figure was 0.174.
With TCCCATATAGTGCGTGAGA the figure was 0.291; with TCCCGGGCAGTAAATGAGA, 0.431; with TCCCGGATAGTAGTTGAGA, 0.346.
For TCCCGACGAGTAACTGAGA, the TetR repression strength stood at 0.467.
As for TCCCTCGAAGTGGGAGAGA, the TetR repression strength is 0.135.
With TCCCTTCTAGTCCGTGAGA the figure was 0.468; with TCCCGATAAGTTGTGGAGA, 0.161.
Consider TCCCTTGGAGTTCTTGAGA, for which the TetR repression strength stood at 0.179.
With TCCCTTTAAGTGGAGGAGA the figure was 0.247.
With TCCCGAGAAGTCCTGGAGA the figure was 0.263; with TCCCTGACAGTTTGAGAGA, 0.251.
With TCCCTGAGAGTTTGTGAGA the figure was 0.198; with TCCCACTAAGTTGCTGAGA, 0.0327; with TCCCGAGGAGTACAAGAGA, 0.444.
TCCCGCTGAGTTTCAGAGA registered a TetR repression strength of 0.204.
With TCCCCTGTAGTGGAAGAGA the figure was 0.0556.
In the case of TCCCATGGAGTAAGAGAGA, the TetR repression strength is 0.0851.
With TCCCCTAGAGTCCTGGAGA the figure was 0.952.
With TCCCCCTCAGTTTCTGAGA the figure was 0.239; with TCCCGCTAAGTCGGTGAGA, 0.207; with TCCCCCATAGTAGGAGAGA, 0.171.
With TCCCTTAGAGTTAACGAGA the figure was 0.275; with TCCCTTCAAGTTTGAGAGA, 0.185.
Take TCCCCGTTAGTTACTGAGA: the TetR repression strength came to 0.222.
Regarding TCCCATATAGTGGCGGAGA, the TetR repression strength was 0.0484.
With TCCCGGGCAGTTATGGAGA the figure was 0.1; with TCCCTCCGAGTGTTGGAGA, 0.0665.
With TCCCGCAAAGTTAGTGAGA the figure was 0.0818.
Sequence TCCCGTTTAGTGTGTGAGA came in with a TetR repression strength of 0.212.
With TCCCGAGGAGTGCTAGAGA the figure was 0.108; with TCCCGAAAAGTTTATGAGA, 0.0921.
With TCCCTTGCAGTGTTCGAGA the figure was 0.441; with TCCCCACGAGTCGGGGAGA, 0.411; with TCCCAATCAGTGGAGGAGA, 0.26.
With TCCCTTCAAGTGTTGGAGA the figure was 0.208.
As to TCCCATTGAGTGAGCGAGA, the TetR repression strength was 0.435.
Sequence TCCCTCGCAGTCCGCGAGA yielded a TetR repression strength of 0.188.
With TCCCACAAAGTGCGAGAGA the figure was 0.495.
With TCCCAGCAAGTGGGGGAGA the figure was 0.237; with TCCCAGCGAGTCAGTGAGA, 0.149; with TCCCTTCAAGTGGTAGAGA, 0.292.
With TCCCTGTGAGTCGGAGAGA the figure was 0.0538.
As for TCCCTGTAAGTAGGTGAGA, the TetR repression strength was 0.0648.
TCCCACGCAGTGCATGAGA registered a TetR repression strength of 0.234.
With TCCCTGGCAGTCTGTGAGA the figure was 0.0742.
With TCCCCCGAAGTGGTGGAGA the figure was 0.205; with TCCCGTCTAGTGTTTGAGA, 0.371; with TCCCATTTAGTTGTTGAGA, 0.121.
With TCCCGGCCAGTGCGTGAGA the figure was 0.32; with TCCCGCGGAGTCAACGAGA, 0.307; with TCCCATATAGTCAGTGAGA, 0.166.
TCCCATGTAGTTAAGGAGA had a TetR repression strength of 0.127.
With TCCCTGAAAGTCACGGAGA the figure was 0.337; with TCCCGCTAAGTAAGGGAGA, 0.124; with TCCCTAAAAGTTGGCGAGA, 0.403.
For the sequence TCCCACCTAGTTCGTGAGA, the TetR repression strength came out at 0.116.
With TCCCTAATAGTATAGGAGA the figure was 0.207; with TCCCAATCAGTGAAAGAGA, 0.686; with TCCCGTAGAGTAATCGAGA, 0.25.
Regarding TCCCTGTCAGTGGCGGAGA, the TetR repression strength was 0.391.
With TCCCGAGCAGTTCCCGAGA the figure was 0.148.
